The other results are listed elsewhere or left out. The list includes weakly bound sequences.
Each sequence was assayed against MaxL homodimer (UniProt P61244) (assay: universal protein-binding microarray (PBM)). Settings: PBS-based mixture, 10 nM His-tagged protein dimer, 2% milk, 200 ng/uL BSA, 50 ng/uL salmon testes DNA, 0.02% TX-100; detection with Alexa 488 anti-His …; high values mean tight binding; most listed sequences are background and not binding sites; double strand, one strand shown.
UniProt P61244, sequence (P61244 whole entry): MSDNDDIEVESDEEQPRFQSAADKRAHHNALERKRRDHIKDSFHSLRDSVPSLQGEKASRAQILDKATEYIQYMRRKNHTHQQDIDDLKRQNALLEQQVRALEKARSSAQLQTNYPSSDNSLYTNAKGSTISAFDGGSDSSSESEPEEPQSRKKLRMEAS

Sequence | binding signal (normalized occupancy)
CGAGGGGA | 0.0726
CCCATGAG | 0.0921
AACTTTAA | 0.0679
GTTACAAC | 0.0748
CAAGACTC | 0.0699
AACGGCAG | 0.067
CACGGCGA | 0.0765
ATAGAGGA | 0.0732
ATCTGCGA | 0.078
CCTTCCTA | 0.0705
TCGCAGCA | 0.0711
CAGCGGGC | 0.0682
CCGAGTGC | 0.0748
GACGAAGA | 0.0677
CCATGGCG | 0.0768
GATAGTCC | 0.082
ACCCTAAT | 0.079
GTTCACAA | 0.0724
GCTGGTAC | 0.0712
AAAAACCG | 0.0752
AGAGAAAG | 0.0712
ATACCTAA | 0.078
AAGGCTTC | 0.0717
GCGAGCAC | 0.0768

Sequence | binding signal (normalized occupancy)
ACAGCGGG | 0.0697
GGTAACTA | 0.077
CAAGGATG | 0.0729
CTTATCAA | 0.0755
CCGTACTC | 0.0675
GATATCCC | 0.0803
AGCTCCGC | 0.0681
AAACGTCT | 0.0704
CGAGTTGA | 0.0727
CTATTGTC | 0.079
AGCGCTAC | 0.0701
ACCGATCT | 0.0743
ACCGATAG | 0.0767
ATTTTAAC | 0.0737
GGTCAAAC | 0.0731
ACTATTGA | 0.0748
AAATACCC | 0.0789
AATGTTTA | 0.0748
GGCGCCAA | 0.066
CGTGCGGA | 0.0851
GCATGGAA | 0.0932
AGAAGCTC | 0.0732
ACGGACTA | 0.0757
ACCTAAGT | 0.0745

Sequence | binding signal (normalized occupancy)
CGCTTCGA | 0.0673
GTTCTATA | 0.0795
AATACCGT | 0.0735
ACCCTCAC | 0.0801
TATCATCA | 0.0814
CAGTACTG | 0.074
AATTGCAT | 0.0746
CCCTGCGA | 0.0717
CTAATAAC | 0.0826
GATGGGCC | 0.071
GGACGGAC | 0.0693
AAGATATT | 0.0751
ACAAGTTA | 0.0748
AAACCTTC | 0.0692
CTTATTAA | 0.0743
AGGAGAAC | 0.0777
AAACTTTA | 0.0719
ATGTCCTA | 0.0783
CCCAGCAA | 0.0747
AAGGGCAA | 0.0728
AAAAGGGA | 0.0725
GGTAGTAC | 0.0788
GGACGACC | 0.0682
CCGCTGTA | 0.0735

Sequence | binding signal (normalized occupancy)
AATTGGAT | 0.0727
CACAGCTG | 0.0757
ATGGTCAA | 0.0825
ACGGCTCT | 0.069
GGCGTAGA | 0.0753
ACGAATCA | 0.0778
ATGCTGCA | 0.0899
ACTCATGA | 0.0903
CAAGGTAA | 0.0729
CTCTCCGA | 0.0657
AGCCCGGC | 0.0634
CTTCCGTC | 0.0725
GCGCTCCC | 0.0674
CCCAAATA | 0.0756
CACTGCAC | 0.0816
ACATAAAA | 0.0779
AGTAGTCA | 0.0744
GCTGGCAC | 0.0743
AAAGGTCT | 0.0727
CAGTCGGG | 0.0726
AAGTTCAC | 0.0713
ACGGCGAG | 0.075
